This is one part of the list. At the low end of the ranking, values are background and their order means little.

For this experiment, the target named is T1, GST-Rok (full length) (UniProt O34857).
T1 sequence: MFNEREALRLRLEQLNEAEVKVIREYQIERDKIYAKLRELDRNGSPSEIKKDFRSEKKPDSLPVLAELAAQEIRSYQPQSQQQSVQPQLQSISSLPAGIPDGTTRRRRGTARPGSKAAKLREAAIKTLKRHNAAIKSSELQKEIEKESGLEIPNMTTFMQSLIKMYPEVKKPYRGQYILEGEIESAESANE
The experiment can be described thus: protein binding microarray.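 Also: rank score from −0.5 (least bound) to 0.5 (best bound).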 Particulars: Rok is a gene silencer of Bacillus subtilis; high values mean tight binding; most listed sequences are background and not binding sites; double strand, one strand shown.
On to CGGCCAGA, for which the binding signal is -0.116 E-score.
Sequence GAGATGGA registered a binding signal of -0.151 E-score.
The sequence CAGTACTA registered a binding signal of 0.279 E-score.
The figure for CGGCATAA is -0.0488 E-score.
To ACCCGTGG belongs -0.187 E-score.
The figure for AAAAGTCA is 0.0581 E-score.
On to CTTGCCAC, for which the binding signal is -0.0642 E-score.
The figure for AGCAAAGC is -0.0901 E-score.
To AGACCCCC belongs -0.406 E-score; to CGTGATGC, -0.115 E-score; to AGTTCTAA, 0.15 E-score.
The figure for ACCTTCGT is -0.242 E-score; for AGCCTCAA it is 0.00804 E-score; for TAAACATA it is 0.28 E-score.
The sequence ACCATGGA displayed a binding signal of 0.131 E-score.
Sequence AAGCACGA came in with a binding signal of 0.0764 E-score.
In the case of GCAGTTAA, the binding signal came to 0.125 E-score.
With CACTAATC, the binding signal amounted to 0.0536 E-score.
AAGCGTGA: the binding signal was -0.24 E-score.
CCCGTGGA registered a binding signal of -0.26 E-score.
To CCGAAGTA belongs 0.0367 E-score; to CTTGCACA, 0.117 E-score; to CGTATGTA, 0.268 E-score.
To AGGAAGTG belongs -0.139 E-score.
GCTGACAC: the binding signal is -0.00646 E-score.
Take GACTAAGA: the binding signal came out at 0.189 E-score.
AAGTGCCG displayed a binding signal of -0.16 E-score.
CTATAGTA had a binding signal of 0.365 E-score.
Sequence ACAAACCT yielded a binding signal of 0.0189 E-score.
On to ATCACACA, for which the binding signal was determined as 0.125 E-score.
CTGGAGCC returned a binding signal of -0.233 E-score.
The figure for ACATCCCC is -0.26 E-score.
In turn, GATCCGCC registered a binding signal of -0.346 E-score.
To CACTTTCC belongs 0.0273 E-score.
To GATTAAAC belongs 0.0283 E-score; to TTGGTAAA, 0.217 E-score; to AAGGCTAA, -0.17 E-score.
The figure for CCAAGAAC is -0.19 E-score.
Take CTGATTTC: the binding signal came out at 0.0708 E-score.
Sequence CACCCATA displayed a binding signal of 0.0794 E-score.
The sequence CTGTTTAA gave a binding signal of -0.1 E-score.
To AGAGATAC belongs 0.22 E-score; to AGACCCTC, -0.376 E-score.
The figure for ACAGTGTC is 0.114 E-score; for CAATGCTC it is -0.205 E-score.
Regarding ACCGTGGC, the binding signal was -0.203 E-score.
The sequence AGGACACT returned a binding signal of 0.0286 E-score.
GGACTGAA returned a binding signal of -0.176 E-score.
The figure for ATGCTCAC is -0.00157 E-score.
Take ATGGGATC: the binding signal was -0.0663 E-score.
The figure for GAATTACA is 0.306 E-score; for GTAACCCA it is -0.0342 E-score; for CGCACACA it is -0.228 E-score.
To TACTCTCA belongs 0.22 E-score.
The figure for CCGACGCC is -0.361 E-score.
On to CTCGGCCA, for which the binding signal is -0.164 E-score.
For the sequence AATTCTTC, the binding signal worked out at 0.162 E-score.
To GGGAACCA belongs -0.324 E-score; to ACACTAAC, 0.157 E-score; to GCGCAACA, 0.00842 E-score.
For the sequence GGTTGCAA, the binding signal is -0.0509 E-score.
As for ACTTTCAC, the binding signal came to 0.104 E-score.
The figure for TGACGTAA is -0.0449 E-score; for CGCGTGCC it is -0.296 E-score; for TCGTTGCA it is 0.102 E-score.
The figure for AAGCTCAC is -0.199 E-score; for CACGCTGC it is -0.169 E-score; for CCAAAGTC it is 0.0563 E-score.
As to ACGCGGTC, the binding signal is -0.0839 E-score.
Turning to AATAGAGC, the binding signal is 0.0399 E-score.
The figure for GTGGGAGA is -0.297 E-score; for GAGTCTAC it is -0.00523 E-score; for CCACGTTA it is 0.184 E-score.
GTGGGGCA came in with a binding signal of -0.348 E-score.
In turn, ACACTGAG displayed a binding signal of -0.368 E-score.
To ACCCGAGA belongs -0.152 E-score.
As to TACGAGAA, the binding signal amounted to 0.113 E-score.
The figure for AGCGACTC is -0.0265 E-score; for AATCGTGT it is 0.15 E-score; for ACAATGGT it is 0.0705 E-score.
For TGCAGTAA, the binding signal is 0.194 E-score.
The figure for AGTATACC is 0.164 E-score; for CCTTAACC it is -0.0948 E-score.
To AAACATGC belongs 0.0306 E-score.
AATGTAGT displayed a binding signal of 0.363 E-score.
AGCTCGTG came in with a binding signal of -0.358 E-score.
The figure for AGCATCGA is -0.0468 E-score.
Take GCTGGTAA: the binding signal was found to be 0.0556 E-score.
Sequence ATAGCCCC came in with a binding signal of -0.236 E-score.
The figure for GTCGTTCA is 0.00947 E-score; for AATGCTGG it is -0.152 E-score; for GCCTCACC it is -0.231 E-score.
On to GGGGCACA, for which the binding signal is -0.17 E-score.
The figure for AAGGGTAC is -0.0879 E-score; for CCAGTGCG it is -0.201 E-score.
Turning to CCAACGGA, the binding signal was -0.0289 E-score.
The figure for ACCTAGTA is 0.292 E-score; for ATCCACAT it is 0.206 E-score.
The figure for ATATCGAG is 0.213 E-score.
To AGCGGCAC belongs -0.184 E-score; to GCAGCAGC, -0.158 E-score; to CGAGTAGA, 0.0915 E-score.
In turn, GAGGTACC came in with a binding signal of 0.0117 E-score.
Consider ATGGGCCG, for which the binding signal was -0.146 E-score.
To CGTAATTC belongs 0.2 E-score.
To GTGTCCTA belongs 0.0862 E-score.
For the sequence GAGCGTGC, the binding signal was -0.232 E-score.
The figure for AGAGCGTA is 0.02 E-score.
The figure for CGCAGCGA is -0.0147 E-score; for ATTGGCAG it is -0.147 E-score; for AAAAACTA it is 0.417 E-score.
The figure for ATTCTGGA is -0.00738 E-score; for ACTCATAT it is 0.111 E-score.
CTCATGAA came in with a binding signal of -0.0384 E-score.
In turn, CTCGCATC displayed a binding signal of -0.101 E-score.
The figure for AAGCCGAC is 0.00914 E-score.
AACATCTT showed a binding signal of 0.17 E-score.
AGCCATTC: the binding signal worked out at 0.00502 E-score.
In the case of GAGTGCAC, the binding signal is -0.194 E-score.
In the case of CGATGCCC, the binding signal is -0.0481 E-score.
The figure for AGCGACCT is 0.0288 E-score; for TGCTTCAA it is -0.25 E-score.
On to ATTCAAAA, for which the binding signal stood at 0.118 E-score.
Turning to GATAGGAC, the binding signal is -0.0277 E-score.
The figure for ACTTAAAT is 0.195 E-score.
Consider CGAACATC, for which the binding signal was 0.0919 E-score.
To GTTCGATA belongs 0.133 E-score.
In turn, GATCGTCC displayed a binding signal of -0.233 E-score.
GAGACTAC came in with a binding signal of 0.0223 E-score.
The figure for GCTTAGAC is -0.0388 E-score; for ACCCCAAG it is -0.0462 E-score; for AATAGTGC it is 0.202 E-score.
The figure for ACATCGCG is 0.165 E-score; for AATGCGTA it is 0.157 E-score; for CTCCAGAC it is -0.129 E-score.
In turn, TAACTGAA yielded a binding signal of 0.23 E-score.
To CCTGGAAC belongs -0.0762 E-score.
To CCCTACCG belongs -0.258 E-score; to CCTTAACA, -0.0787 E-score.
To AAGATCTA belongs 0.272 E-score; to AGATCAAG, 0.107 E-score; to GTATATGA, 0.216 E-score.
With AACTGATA, the binding signal is 0.299 E-score.
In the case of GACTACTA, the binding signal was found to be 0.34 E-score.
To CCGACTCC belongs -0.406 E-score; to ACCAAGGA, -0.0643 E-score; to CGTATGCC, -0.11 E-score.
As to GAAGTATA, the binding signal was 0.169 E-score.
Sequence AGCTGTTG gave a binding signal of -0.0284 E-score.
To ATATTCTA belongs 0.424 E-score.
As for CTACCGGA, the binding signal amounted to 0.177 E-score.
With ATGGATGG, the binding signal was -0.15 E-score.
The figure for ACGCTACG is 0.103 E-score.
With AAAGTGTA, the binding signal came to 0.206 E-score.
To CCGTCTTA belongs -0.144 E-score; to ACCGTATC, 0.166 E-score.
The sequence GTGATTAA gave a binding signal of 0.0579 E-score.
On to AGCCAGGA, for which the binding signal was -0.163 E-score.
To CTTTCACA belongs -0.00421 E-score; to CTATCCTA, 0.0781 E-score.
As to AATTCCCG, the binding signal was 0.0344 E-score.
The figure for AGTCGGGG is -0.222 E-score; for CAAACATG it is 0.124 E-score.
The sequence AACCAGTC returned a binding signal of -0.188 E-score.
For the sequence ACCTCAGC, the binding signal worked out at 0.0157 E-score.
On to AGCATAGC, for which the binding signal is -0.148 E-score.
ACACTGAT displayed a binding signal of 0.0842 E-score.
Turning to ACCTGGAG, the binding signal was -0.112 E-score.
To ATGCCCCC belongs -0.325 E-score; to CATACTGA, -0.0112 E-score.
To GACCGTCA belongs -0.199 E-score; to CTATGATC, 0.184 E-score.

(Values after paper PMC6212790.)
